Laboratory results: the supplement of paper PMC10369915
This is one part of the list. Cut-off read from the data, not from the text of the source: active = 3.2 or more and inactive = the rest. Only a few entries rise above the background.

biological target: SHP2 C-SH2 domain E139D; test: enrichment score (SH2-bound / input frequency) (ratio); bacterial display of known human phosphotyrosine sites (pTyr-Var adds point mutants) read by sequencing; higher = stronger binding; tyrosines were phosphorylated by kinases first; conditions: peptide library: pTyr-Var
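Note: displayed peptides selected on beads carrying the immobilized SH2 domain, with library peptides lacking any tyrosine serving as negative controls.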

Enrichment score, active:
KYWREYILSLE [GPC3_Y299] 3.49
KFWREYILSLE [GPC3_Y299_YF] 3.79

Enrichment score, inactive:
IVWDSYTTNKV [GNB3_Y85] 1.14
IIWDSYTTNKM [GNB4_Y85] 1.35
IIWDSYTTNEM [GNB4_Y85_K89E] 1.33
CNRADYSKLAP [GNE_Y22] 0.766
CNRADYSKLAS [GNE_Y22_P27S] 0.558
EVLKNYNQQKD [GOLGA4_Y1551] 0.728
EVLKNYSQQKD [GOLGA4_Y1551_N1552S] 0.73
GPKSTYISSAA [GOLGA5_Y62] 0.508
GPKSTYISSAG [GOLGA5_Y62_A67G] 0.624
SQSPHYFRSGQ [GPATCH8_Y1038_R1043Q] 0.68
NTILLYHIMAW [GPR143_Y157_S152N] 1.86
GDAMLYYPSVS [GPR143_Y177_A173D] 0.59
GRQGIYTENER [GPR143_Y231] 0.606
GRQGIYTKNER [GPR143_Y231_E233K] 0.872
GRQGIYKENER [GPR143_Y231_T232K] 1
GFAIVYGTIIL [GPR179_Y460] 0.649
DFAIVYGTIIL [GPR179_Y460_G455D] 0.521

biological target: SHP2 C-SH2 domain wild-type; test: as above; conditions: peptide library: pTyr-Var

Enrichment score, active:
KYWREYILSLE [GPC3_Y299] 3.25
KFWREYILSLE [GPC3_Y299_YF] 3.62

Enrichment score, inactive:
IVWDSYTTNKV [GNB3_Y85] 1.14
IIWDSYTTNKM [GNB4_Y85] 0.906
IIWDSYTTNEM [GNB4_Y85_K89E] 1.31
CNRADYSKLAP [GNE_Y22] 0.982
CNRADYSKLAS [GNE_Y22_P27S] 0.906
EVLKNYNQQKD [GOLGA4_Y1551] 1.08
EVLKNYSQQKD [GOLGA4_Y1551_N1552S] 0.595
GPKSTYISSAA [GOLGA5_Y62] 0.506
GPKSTYISSAG [GOLGA5_Y62_A67G] 0.595
SQSPHYFRSGQ [GPATCH8_Y1038_R1043Q] 0.573
NTILLYHIMAW [GPR143_Y157_S152N] 2.37
GDAMLYYPSVS [GPR143_Y177_A173D] 0.593
GRQGIYTENER [GPR143_Y231] 0.722
GRQGIYTKNER [GPR143_Y231_E233K] 0.611
GRQGIYKENER [GPR143_Y231_T232K] 0.821
GFAIVYGTIIL [GPR179_Y460] 1.06
DFAIVYGTIIL [GPR179_Y460_G455D] 0.742

biological target: SHP2 N-SH2 domain L43F; test: as above; conditions: peptide library: pTyr-Var

Enrichment score, active:
KFWREYILSLE [GPC3_Y299_YF] 3.93

Enrichment score, inactive:
IVWDSYTTNKV [GNB3_Y85] 1.13
IIWDSYTTNKM [GNB4_Y85] 0.881
IIWDSYTTNEM [GNB4_Y85_K89E] 1.19
CNRADYSKLAP [GNE_Y22] 0.694
CNRADYSKLAS [GNE_Y22_P27S] 0.796
EVLKNYNQQKD [GOLGA4_Y1551] 0.835
EVLKNYSQQKD [GOLGA4_Y1551_N1552S] 0.673
GPKSTYISSAA [GOLGA5_Y62] 0.562
GPKSTYISSAG [GOLGA5_Y62_A67G] 0.621
SQSPHYFRSGQ [GPATCH8_Y1038_R1043Q] 0.496
KYWREYILSLE [GPC3_Y299] 3.19
NTILLYHIMAW [GPR143_Y157_S152N] 2.12
GDAMLYYPSVS [GPR143_Y177_A173D] 0.771
GRQGIYTENER [GPR143_Y231] 0.643
GRQGIYTKNER [GPR143_Y231_E233K] 0.791
GRQGIYKENER [GPR143_Y231_T232K] 0.82
GFAIVYGTIIL [GPR179_Y460] 0.767
DFAIVYGTIIL [GPR179_Y460_G455D] 0.529

biological target: SHP2 N-SH2 domain T42A; test: as above; conditions: peptide library: pTyr-Var

Enrichment score, inactive:
IVWDSYTTNKV [GNB3_Y85] 1.05
IIWDSYTTNKM [GNB4_Y85] 1.2
IIWDSYTTNEM [GNB4_Y85_K89E] 1.16
CNRADYSKLAP [GNE_Y22] 0.874
CNRADYSKLAS [GNE_Y22_P27S] 0.947
EVLKNYNQQKD [GOLGA4_Y1551] 0.731
EVLKNYSQQKD [GOLGA4_Y1551_N1552S] 0.57
GPKSTYISSAA [GOLGA5_Y62] 0.429
GPKSTYISSAG [GOLGA5_Y62_A67G] 0.562
SQSPHYFRSGQ [GPATCH8_Y1038_R1043Q] 0.754
KYWREYILSLE [GPC3_Y299] 2.92
KFWREYILSLE [GPC3_Y299_YF] 2.89
NTILLYHIMAW [GPR143_Y157_S152N] 1.66
GDAMLYYPSVS [GPR143_Y177_A173D] 0.576
GRQGIYTENER [GPR143_Y231] 0.488
GRQGIYTKNER [GPR143_Y231_E233K] 0.725
GRQGIYKENER [GPR143_Y231_T232K] 0.723
GFAIVYGTIIL [GPR179_Y460] 0.499
DFAIVYGTIIL [GPR179_Y460_G455D] 0.493

biological target: SHP2 N-SH2 domain T52S; test: as above; conditions: peptide library: pTyr-Var

Enrichment score, inactive:
IVWDSYTTNKV [GNB3_Y85] 0.959
IIWDSYTTNKM [GNB4_Y85] 1.08
IIWDSYTTNEM [GNB4_Y85_K89E] 1.25
CNRADYSKLAP [GNE_Y22] 0.892
CNRADYSKLAS [GNE_Y22_P27S] 0.603
EVLKNYNQQKD [GOLGA4_Y1551] 1.09
EVLKNYSQQKD [GOLGA4_Y1551_N1552S] 0.705
GPKSTYISSAA [GOLGA5_Y62] 0.468
GPKSTYISSAG [GOLGA5_Y62_A67G] 0.709
SQSPHYFRSGQ [GPATCH8_Y1038_R1043Q] 0.625
KYWREYILSLE [GPC3_Y299] 3.04
NTILLYHIMAW [GPR143_Y157_S152N] 1.93
GDAMLYYPSVS [GPR143_Y177_A173D] 0.613
GRQGIYTENER [GPR143_Y231] 0.667
GRQGIYTKNER [GPR143_Y231_E233K] 0.658
GRQGIYKENER [GPR143_Y231_T232K] 0.69
GFAIVYGTIIL [GPR179_Y460] 0.692
DFAIVYGTIIL [GPR179_Y460_G455D] 0.501

Enrichment score, active:
KFWREYILSLE [GPC3_Y299_YF] 3.69

biological target: SHP2 N-SH2 domain wild-type; test: as above; conditions: peptide library: pTyr-Var

Enrichment score, inactive:
IVWDSYTTNKV [GNB3_Y85] 1.42
IIWDSYTTNKM [GNB4_Y85] 1.12
IIWDSYTTNEM [GNB4_Y85_K89E] 1.33
CNRADYSKLAP [GNE_Y22] 1.12
CNRADYSKLAS [GNE_Y22_P27S] 0.924
EVLKNYNQQKD [GOLGA4_Y1551] 0.876
EVLKNYSQQKD [GOLGA4_Y1551_N1552S] 0.776
GPKSTYISSAA [GOLGA5_Y62] 0.511
GPKSTYISSAG [GOLGA5_Y62_A67G] 0.487
SQSPHYFRSGQ [GPATCH8_Y1038_R1043Q] 0.723
KYWREYILSLE [GPC3_Y299] 2.87
NTILLYHIMAW [GPR143_Y157_S152N] 1.91
GDAMLYYPSVS [GPR143_Y177_A173D] 0.71
GRQGIYTENER [GPR143_Y231] 0.662
GRQGIYTKNER [GPR143_Y231_E233K] 0.679
GRQGIYKENER [GPR143_Y231_T232K] 0.781
GFAIVYGTIIL [GPR179_Y460] 1.1
DFAIVYGTIIL [GPR179_Y460_G455D] 0.856

Enrichment score, active:
KFWREYILSLE [GPC3_Y299_YF] 3.72
